Experimental data from a collection of fitness landscapes (doi:10.1126/science.1257360).
Some of the results follow.

B1: PhoQ; a variant is named by its letters at X, in order, P23837 (parent)
chain: MKKLLRLFFPLSLRVRFLLATAAVVLVLSLAYGMVALIGYSVSFDKTTFRLLRGESNLFYTLAKWENNKLHVELPENIDKQSPTMTLIYDENGQLLWAQRDVPWLMKMIQPDWLKSNGFHEIEADVNDTSLLLSGDHSIQQQLQEVREDDDDAEMTHSVAVNVYPATSRMPKLTIVVVDTIPVELKSSYMVWSWFIYVLSANLLLVIPLLWVAAWWSLRPIEALAKEVRELEEHNRELLNPATTRELTSLVRNLNRLLKSERERYDKYRTTLTDLTHSLKTPLXXLQXXLRSLRSEKMSVSDAEPVMLEQISRISQQIGYYLHRASMRGGTLLSRELHPVAPLLDNLTSALNKVYQRKGVNISLDISPEISFVGEQNDFVEVMGNVLDNACKYCLEFVEISARQTDEHLYIVVEDDGPGIPLSKREVIFDRGQRVDTLRPGQGVGLAVAREITEQYEGKIVAGESMLGGARMEVIFGRQHSAPKDE

Variants of: B1
Test: enrichment ratio after two sorts for PhoP signalling (ratio (wild type AVST 3.29)); higher = more functional
Conditions: with PhoP (E. coli)

Variant | enrichment ratio
MYNQ | ≤ 0.25
GTPD | ≤ 0.25
IPKK | ≤ 0.25
LFYF | ≤ 0.25
DGDV | ≤ 0.25
IMLQ | ≤ 0.25
QSDG | 11.8
LRYK | ≤ 0.25
TCFV | ≤ 0.25
MCDR | ≤ 0.25
RMLH | ≤ 0.25
WAMY | ≤ 0.25
RNFT | ≤ 0.25
WFHM | ≤ 0.25
IHFG | ≤ 0.25
SDMN | 6.8
WDAI | ≤ 0.25
LKQY | ≤ 0.25
IHKC | ≤ 0.25
LTIN | ≤ 0.25
QLND | ≤ 0.25
MVDK | ≤ 0.25
CIDF | ≤ 0.25
IRAR | ≤ 0.25
AQYF | 0.277
LQQN | 3.31

Variant | enrichment ratio
QMKS | ≤ 0.25
YADM | ≤ 0.25
IIRY | ≤ 0.25
HFQS | ≤ 0.25
TFSE | ≤ 0.25
FHSM | ≤ 0.25
WGIP | ≤ 0.25
PTFI | ≤ 0.25
WNWS | ≤ 0.25
QKVS | ≤ 0.25
AYDM | ≤ 0.25
IHHE | ≤ 0.25
SIRV | ≤ 0.25
GLYW | ≤ 0.25
HRMY | ≤ 0.25
KRRK | ≤ 0.25
SFLY | 0.911
IHMY | ≤ 0.25
KCPF | ≤ 0.25
VVLC | ≤ 0.25
EAGQ | ≤ 0.25
IRLS | ≤ 0.25
TVLV | 0.789
RQNF | ≤ 0.25
PVHR | ≤ 0.25
VCKS | ≤ 0.25

Variant | enrichment ratio
WTSI | ≤ 0.25
IAQY | ≤ 0.25
YNKM | ≤ 0.25
GDMM | ≤ 0.25
QSRH | ≤ 0.25
EKSP | ≤ 0.25
KMHV | ≤ 0.25
RYEI | ≤ 0.25
EYDN | ≤ 0.25
RQYV | ≤ 0.25
RFKK | ≤ 0.25
LNTL | ≤ 0.25
SKNR | ≤ 0.25
MNWA | ≤ 0.25
NFQV | ≤ 0.25
SLDP | ≤ 0.25
HSIV | ≤ 0.25
WLVN | ≤ 0.25
VHMD | ≤ 0.25
ECPW | ≤ 0.25
RPPE | ≤ 0.25
ICWM | ≤ 0.25
GQCC | ≤ 0.25
RHLL | ≤ 0.25
DVCS | ≤ 0.25
IVLY | ≤ 0.25

Variant | enrichment ratio
NKSH | ≤ 0.25
VVWV | ≤ 0.25
LIHH | ≤ 0.25
YNPI | ≤ 0.25
RQKR | ≤ 0.25
INVR | ≤ 0.25
DGPL | ≤ 0.25
EYCI | ≤ 0.25
YQNF | ≤ 0.25
FREG | ≤ 0.25
KYYC | ≤ 0.25
SHCD | ≤ 0.25
AYCM | 0.253
IRMT | ≤ 0.25
IGNG | ≤ 0.25
GIIP | ≤ 0.25
KHTA | ≤ 0.25
NFWW | ≤ 0.25
GGTL | 5.81
SIDF | ≤ 0.25
FGHN | ≤ 0.25
MRDM | ≤ 0.25
VWRV | ≤ 0.25
GWCS | ≤ 0.25
EHIL | ≤ 0.25
DRQT | ≤ 0.25

Variant | enrichment ratio
YHII | ≤ 0.25
GLQA | ≤ 0.25
TFCK | ≤ 0.25
FSRV | ≤ 0.25
EILW | ≤ 0.25
WFLA | ≤ 0.25
ERRV | ≤ 0.25
ALLM | 7.31
VNRP | ≤ 0.25
QHPG | ≤ 0.25
MNQV | ≤ 0.25
VVSI | ≤ 0.25
FRCE | ≤ 0.25
WKWN | ≤ 0.25
TMWW | ≤ 0.25
RQCV | ≤ 0.25
WFIP | ≤ 0.25
VSVT | 0.566
PWIA | ≤ 0.25
DDRW | ≤ 0.25
ILLR | 0.288
WDAS | ≤ 0.25
GGCG | ≤ 0.25
QEYR | ≤ 0.25
NFKE | ≤ 0.25
ACYH | ≤ 0.25

Variant | enrichment ratio
LAPP | ≤ 0.25
PRKV | ≤ 0.25
DGLR | ≤ 0.25
GSFQ | ≤ 0.25
KYRQ | ≤ 0.25
ISDL | ≤ 0.25
TNYM | 1.85
QEEK | ≤ 0.25
YDDK | ≤ 0.25
VIMW | ≤ 0.25
QNER | ≤ 0.25
VNHA | ≤ 0.25
NGST | ≤ 0.25
LVDY | ≤ 0.25
SRGQ | ≤ 0.25
SEFV | 11.8
MAVI | ≤ 0.25
LCLF | ≤ 0.25
YAWT | ≤ 0.25
HLMI | ≤ 0.25
QDAI | ≤ 0.25
NHLI | ≤ 0.25
QSLR | ≤ 0.25
